Where “and” joins values, the source holds several entries; their conditions need not be identical. Equal entries are not always repeated. Among all 410,000 compounds or so, about 6,400 (1.6%) were called active. Inconclusive results, whose numbers are uncertain, are shown with a selection of clear calls. The call rests on the fitted dose curve; in most records, active means well fitted inhibition curve with a large enough effect; inconclusive means small, poorly fitted or top-dose-only effect; inactive means no such curve, though single readings can be large or run the other way. Potencies of inconclusive entries are doubtful fits and often do not repeat.
The compounds below were run against Glucagon-like peptide 1 receptor (Homo sapiens) (UniProt P43220) (assay: qHTS of GLP-1 Receptor Inverse Agonists (Inhibition Mode)). Conditions: HEK293 GLP-1R CRE-luciferase, luminescence, 24 h, GLP-1R form is constitutively active; activity change, negative = inhibition: at 38.3 µM (top of the series) unless noted.
Summary of the method: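 Luminescence readout: a drop in cAMP-driven luciferase signal flags inverse agonism at a constitutively active GLP-1R stably expressed in HEK293. Compound exposure lasted 24 hr at 37 deg C, 5% CO2.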
Further: nearly all actives have a fitted effect of over 55% in size.
On the % scale 0 is the no-effect control and ±100 the full control effect; potency means the concentration at half of the fitted maximal effect; tags describe the fitted curve by direction and shape.

Sequence of UniProt P43220 (P43220 whole entry, looked up): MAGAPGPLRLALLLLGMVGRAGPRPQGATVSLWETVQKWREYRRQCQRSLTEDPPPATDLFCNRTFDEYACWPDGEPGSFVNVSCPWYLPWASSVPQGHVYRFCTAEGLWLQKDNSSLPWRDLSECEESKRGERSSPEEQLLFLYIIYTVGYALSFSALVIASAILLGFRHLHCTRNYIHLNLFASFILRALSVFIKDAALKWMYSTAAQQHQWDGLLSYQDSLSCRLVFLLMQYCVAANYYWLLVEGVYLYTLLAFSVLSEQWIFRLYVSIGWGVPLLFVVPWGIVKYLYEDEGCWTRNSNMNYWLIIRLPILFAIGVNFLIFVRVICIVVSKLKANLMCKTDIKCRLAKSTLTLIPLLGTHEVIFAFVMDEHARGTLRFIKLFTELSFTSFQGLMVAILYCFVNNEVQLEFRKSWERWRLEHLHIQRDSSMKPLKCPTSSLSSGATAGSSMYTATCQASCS

Row | Structure (SMILES) | Potency | activity change, negative = inhibition
1 | O=C(CN(C(=O)Cn1nnc(-c2ccccc2F)n1)c1cccc2c1CCCC2)NCc1ccccc1 | inconclusive: 10 µM [inhibitor, partial curve, poor fit] | –
2 | CC1(C)CC(=O)c2c(oc3c(Cl)cc(NS(=O)(=O)c4ccc(Cl)cc4)cc23)C1 | inactive | –
3 | N/C(=N\OC(=O)c1cccs1)C1(c2ccc(Cl)cc2Cl)CC1 | inconclusive: 7.08 µM [inhibitor, partial curve, poor fit] | –
4 | CN(C)S(=O)(=O)c1ccc2c(c1)N(CC(=O)N1CCN(c3ccc(F)cc3)CC1)CCS2 | inactive | –
5 | Cc1cc(OCCCn2ccnc2)ccc1[N+](=O)[O-] | inconclusive: 10 µM [inhibitor, single point] | –
6 | COc1ccc2c(c1)c(C(C)=O)c(C)n2-c1ccc(C(C)=O)cc1 | inconclusive: 1.12 µM [inhibitor, partial curve, poor fit] | –
7 | O=C(c1ccc2c(=O)n3c(nc2c1)CCCCC3)N1CCN(c2ccccc2F)CC1 | inconclusive: 11.2 µM [inhibitor, partial curve, poor fit] | –
8 | CN(CC(=O)NC(=O)NCc1ccccc1)Cc1ccc(Cl)cc1 | inconclusive: 11.2 µM [inhibitor, single point] | –
9 | O=c1c2ccccc2ncn1-c1cccc([N+](=O)[O-])c1 | inactive | –
10 | CCCCN(C)C(=S)Nc1ccc2nc(N3CCN(CC)CC3)cc(C)c2c1 | inconclusive: 8.91 µM [inhibitor, partial curve, poor fit] | –
11 | CCOC(=O)c1ccc(NC(=S)NC(=O)c2cncc(Br)c2)cc1 | inactive | –
12 | Cc1cccc(-c2nc(S(=O)(=O)c3ccc(F)cc3)c(NCCCN3CCOCC3)o2)c1 | inconclusive: 12.6 µM [inhibitor, partial curve, poor fit] | –
13 | Cc1ccc(Nc2cc(C(=O)NCCCN3CCOCC3)c3ccccc3n2)cc1C | inconclusive: 11.2 µM [inhibitor, partial curve, poor fit] | –
14 | Clc1ccc(-c2nnc(NC3=NCCCCC3)o2)cc1 | active: 4.47 µM | –
15 | CCC(Sc1nc(-c2ccccc2)c(C#N)c(=O)[nH]1)C(=O)Nc1cc(C)on1 (configuration not stated) | inactive | –
16 | CCCOc1cccc(C(=O)Nc2cccc(NC(=O)c3ccco3)c2)c1 | inconclusive: 8.91 µM [inhibitor, partial curve, poor fit] | –
17 | COc1ccccc1Nc1cc(C(=O)NCc2cccs2)c2ccccc2n1 | inconclusive: 12.6 µM [inhibitor, partial curve, poor fit] | –
18 | Cc1ccc(NCc2nc3ccccc3n2CCOc2ccccc2)cc1 | inconclusive: 14.1 µM [inhibitor, single point] and inconclusive: 28.2 µM [inhibitor, single point] | –
19 | COc1ccccc1CCn1cnc(-c2ccc(OC)c(OC)c2)c1C(C)C | inconclusive: 14.1 µM [inhibitor, single point] | –
20 | COc1ccccc1N1CCN(C2CCN(S(=O)(=O)c3ccc(C)cc3)CC2)CC1 | inconclusive: 31.6 µM [inhibitor, partial curve, poor fit] | –
21 | COc1ccc(CCN2C(=O)CSC2c2ccc(F)cc2)cc1 (configuration not stated) | inconclusive: 28.2 µM [inhibitor, single point] | –

Row | Structure (SMILES) | Potency | activity change, negative = inhibition
22 | O=C(CSc1cn(CC(=O)N2CCCCC2)c2ccccc12)NCC1CCCO1 (configuration not stated) | inconclusive: 1.26 µM [inhibitor, full curve, poor fit] | –
23 | COc1ccc(CC(N)c2csc(NC(=O)c3cc(C(C)(C)C)nn3Cc3ccccc3)n2)cc1 (configuration not stated) | inconclusive: 11.2 µM [inhibitor, single point] | –
24 | COc1ccc(C(C(=O)c2ccccc2)c2ccccc2)cc1 (configuration not stated) | inconclusive: 28.2 µM [inhibitor, single point] | –
25 | CCC(C(=O)NCc1ccco1)N(C(=O)CNS(=O)(=O)c1ccccc1)c1ccccc1C (configuration not stated) | inconclusive: 11.2 µM [inhibitor, single point] | –
26 | CCOc1cc(C2/C(=C(/O)c3ccc(OC(C)C)cc3)C(=O)C(=O)N2CCCOC)ccc1O (configuration not stated) | inactive | –
27 | COC(=O)c1ccc(CNC(=O)c2ccc(OC)c(S(=O)(=O)NC3CC3)c2)cc1 | inactive | –
28 | COc1ccc(N2CCN(C(=O)c3sc4ncn(CC(=O)N5CCCCC5)c(=O)c4c3C)CC2)cc1 | inconclusive: 28.2 µM [inhibitor, single point] | –
29 | Cc1nn(CCOc2cccc(Cl)c2)c(C)c1[N+](=O)[O-] | inconclusive: 11.2 µM [inhibitor, single point] | –
30 | C[C@H](O)[C@@H]1C(=O)N2CCc3ccc(-c4ccccc4)cc3[C@@H]2C[C@@H]1N(C)C(=O)Nc1cc(Cl)cc(Cl)c1 | inconclusive: 11.2 µM [inhibitor, single point] | –
31 | Cc1noc(C)c1S(=O)(=O)Nc1ccc2c(c1)C(=O)N([C@H](C)CO)C[C@H](C)[C@H](CN(C)S(=O)(=O)c1ccc(Cl)cc1)OCCCC[C@@H](C)O2 | inconclusive: 28.2 µM [inhibitor, single point] | –
32 | O=C1OCCN1C(=O)[C@H]1[C@H](c2ccccc2)C(c2ccccc2)=NN1c1ccccc1 | inconclusive: 11.2 µM [inhibitor, single point] | –
33 | CC(C)Oc1cccc(C(=O)C2CCCN(C(=O)c3ccc4c(c3)OCO4)C2)c1 (configuration not stated) | inconclusive: 28.2 µM [inhibitor, single point] | –
34 | Cc1ccsc1/C=N/NC(=S)NCCc1ccccc1 | – | inactive: -9.99% [at 0.307 µM]
35 | CCN=C1SC(C(=O)Nc2cccc(C)c2)CC(=O)N1CC (configuration not stated) | inactive | –
36 | Cc1ccc(S(=O)(=O)N(C)C)cc1NC(=O)COC(=O)/C=C/c1ccc2c(c1)OCO2 | inconclusive: 11.2 µM [inhibitor, single point] | –
37 | ClC(Cl)(Cl)c1nc2ccccc2n2nncc12 | inconclusive: 31.6 µM [inhibitor, single point] | –
38 | COc1ccc(OCCCC(=O)Nc2cc(S(=O)(=O)N3CCCCC3)ccc2C)cc1 | active: 5.62 µM | –
39 | CN(C)C(CNC(C(=O)Nc1ccc(F)cc1)c1ccccc1)c1ccccc1 (configuration not stated) | inconclusive: 28.2 µM [inhibitor, single point] | –
40 | CN(C(=O)/C(N=Nc1cccc(C(F)(F)F)c1)=C(\O)C(F)(F)F)c1ccccc1 | inconclusive: 28.2 µM [inhibitor, single point] | –
41 | Cc1noc(C)c1S(=O)(=O)N1CCC(C(=O)Nc2ccc(OC(F)(F)F)cc2)CC1 | inconclusive: 2.82 µM [inhibitor, partial curve, poor fit] | –
42 | COCCNc1cc(-c2ccccc2)nc2cc(-c3cccc(F)c3)nn12 | inconclusive: 3.98 µM [inhibitor, partial curve, poor fit] | –

Row | Structure (SMILES) | Potency | activity change, negative = inhibition
43 | Cc1c(O)ccc2c(CN3CCN(C/C=C/c4ccccc4)CC3)cc(=O)oc12 | active: 3.55 µM | –
44 | COCCN1C=C(C(=O)OC)C(c2ccc(Cl)cc2)C(C(=O)OC)=C1 | inconclusive: 11.2 µM [inhibitor, partial curve, poor fit] | –
45 | CCCCN(C)c1c(C)nc2ccc(C(=O)N(C)Cc3ccco3)cn12 | inactive | –
46 | COc1cc(OC)c(OC)cc1CN1CCCC(C(=O)c2sccc2C)C1 (configuration not stated) | inconclusive: 28.2 µM [inhibitor, single point] | –
47 | CC#CC(=O)N1CCC(CCc2ccccc2)(C(=O)OCC)CC1 | inconclusive: 14.1 µM [inhibitor, single point] | –
48 | O=C(CSc1nnc(-c2ccco2)n1-c1ccccc1)NCC1CCCO1 (configuration not stated) | inactive | –
49 | CC[C@]12c3[nH]c4cc(-c5ccco5)ccc4c3CCN1C(=O)[C@@H](CC(=O)NCc1ccco1)C[C@@H]2C(=O)N1CCN(C(=O)C2CC2)CC1 | inactive | –
50 | O=C(N/C(=C/c1ccc(F)cc1)C(=O)N1CCCC1)c1ccccc1 | inconclusive: 7.94 µM [inhibitor, partial curve, poor fit] | –
51 | CCn1nc(C)c(CCN(C)C(=O)Nc2cc(Cl)ccc2C)c1C | inactive | –
52 | O=C(c1ccc(C#CC2(O)CCCCC2)cc1)N1CCN(Cc2ccccc2)CC1 | inconclusive: 14.1 µM [inhibitor, partial curve, poor fit] | –
53 | Cc1cc(-c2nnc(CCC(=O)NC(C)(C)C34CC5CC(CC(C5)C3)C4)o2)no1 | inconclusive: 4.47 µM [inhibitor, partial curve] | –
54 | Cc1ccc(OCCNC(=O)CCNS(=O)(=O)c2ccc3ccccc3c2)cc1 | inconclusive: 10 µM [inhibitor, partial curve] | –
55 | CN(C(=O)CSc1nc2ccccc2o1)C1CCCCC1 | inconclusive: 22.4 µM [inhibitor, single point] | –
56 | CN(Cc1ccon1)C(=O)CCc1nnc(CCCCc2ccccc2)o1 | inconclusive: 28.2 µM [inhibitor, single point] | –
57 | Cc1ccccc1NC(=S)N(Cc1cccs1)C1CCCCC1 | inconclusive: 7.94 µM [inhibitor, partial curve, poor fit] | –
58 | COC(=O)c1ccc(/C=C/C(=O)OCC(=O)Nc2ncc(Cl)cc2Cl)cc1 | inactive | –
59 | Cc1ccc(C(=O)Nc2ccccc2N2CCN(C(=O)C(C)C)CC2)cc1C | inconclusive: 8.91 µM [inhibitor, partial curve, poor fit] | –
60 | Cc1ccc(C)c(C(=O)OCC(=O)Nc2cccc(S(=O)(=O)NC3=NCCCCC3)c2)c1 | inconclusive: 31.6 µM [inhibitor, single point] | –
61 | CSC1=C(C#N)C(=O)NC(c2ccccc2O)S1 (configuration not stated) | inactive | –
62 | CCN1C(=NCc2cc(OC)c(OC)c(OC)c2)N[C@@H](c2cccc(C(F)(F)F)c2)C(C(=O)OC)=C1C | inactive | –
